Measured values from the BET-seq Pho4 binding data (Le et al. 2018).
The other results are listed elsewhere or left out. The energies were worked out here from pooled read counts, against the library average; single values are noisy.

biological target: T1, Pho4 (S. cerevisiae) (UniProt P07270); experiment: relative binding free energy (BET-seq); higher = weaker binding; details: reference: library average
T1 sequence: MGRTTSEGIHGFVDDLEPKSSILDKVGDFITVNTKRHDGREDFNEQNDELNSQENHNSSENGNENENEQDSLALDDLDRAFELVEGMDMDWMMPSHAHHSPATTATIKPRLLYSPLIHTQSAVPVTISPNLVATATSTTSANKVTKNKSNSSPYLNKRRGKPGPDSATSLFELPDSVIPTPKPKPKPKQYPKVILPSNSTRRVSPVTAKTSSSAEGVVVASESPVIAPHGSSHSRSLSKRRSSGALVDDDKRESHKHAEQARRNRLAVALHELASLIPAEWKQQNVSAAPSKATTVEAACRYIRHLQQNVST

| Sequence | relative binding free energy [kcal/mol] |
| --- | --- |
| CTTGGCACGTGGTATA | -0.13 |
| TGCTACACGTGGTAGG | 0.1 |
| ATCTTCACGTGGGGTG | -0.02 |
| AGTTGCACGTGGTAGA | -0.07 |
| AGGTACACGTGGAAGG | 0.06 |
| TTTATCACGTGGGAGC | 0.14 |
| GGGAGCACGTGTCTGG | -0.1 |
| GATGACACGTGGAAGT | 0.21 |
| TTAGACACGTGGGTGT | -0.13 |
| GATTTCACGTGGCTGT | 0.29 |
| CGATGCACGTGGTCAG | -0.01 |
| ACGGACACGTGGAGGT | 0.05 |
| TTTTACACGTGGGGCA | 0.04 |
| TTTTTCACGTGTTCTC | 0.22 |
| TGTTTCACGTGTTTCC | 0.31 |
| TTGGTCACGTGAGTAC | 0.19 |
| GGTGACACGTGGGCCG | 0.07 |
| GGAAACACGTGAAGGT | 0.2 |
| TTGCTCACGTGGTGTC | 0.2 |
| TTGTGCACGTGCATGA | -0.15 |
| TTCTACACGTGTGTGG | 0.05 |

| Sequence | relative binding free energy [kcal/mol] |
| --- | --- |
| AGTATCACGTGAGGTG | 0.29 |
| TATTACACGTGTTATA | 0.01 |
| AGAGTCACGTGCATGG | 0.03 |
| CTAGGCACGTGGGGAC | -0.19 |
| TGTAGCACGTGCGTGT | -0.24 |
| TATTTCACGTGTTGGT | 0.3 |
| GACTGCACGTGTTGTG | 0.11 |
| GGTGTCACGTGAAAAG | 0.23 |
| CTTTTCACGTGAAGGA | 0.44 |
| TATATCACGTGATTCG | 0.27 |
| TGGATCACGTGTCCGT | 0.19 |
| ACGTTCACGTGGGGTG | 0.07 |
| AAATTCACGTGTTATT | 0.24 |
| TTTTACACGTGTGAAG | 0.27 |
| GTTTTCACGTGAGGAA | 0.31 |
| AGTGTCACGTGGGGTT | -0.12 |
| AAAATCACGTGTATTT | 0.05 |
| TGAGCCACGTGGAGTG | -0.03 |
| TAAGGCACGTGTGTCG | 0.06 |
| GGTTCCACGTGGTTTG | -0.04 |
| GGTGGCACGTGTCTGT | -0.05 |

| Sequence | relative binding free energy [kcal/mol] |
| --- | --- |
| CGGTTCACGTGTCGTG | 0.21 |
| TTTGTCACGTGCTATT | 0.06 |
| GTCCGCACGTGAGTGG | 0.08 |
| GTTTTCACGTGTTTTT | 0.4 |
| GGCTTCACGTGAGATG | 0.56 |
| ATATACACGTGGCGTA | -0.02 |
| GTAAACACGTGGGATG | -0.23 |
| GGTATCACGTGTTAAG | 0.21 |
| GTTAGCACGTGGTGGC | -0.09 |
| AGCTGCACGTGTGGAT | 0.08 |
| GGTGGCACGTGATGAT | 0 |
| ACGGTCACGTGAGTTG | 0.37 |
| GTCGGCACGTGGTAAT | -0.06 |
| CTGGACACGTGAGGTG | 0.26 |
| TATTACACGTGATGAT | 0.22 |
| TTATACACGTGCTTTT | -0.02 |
| TGTTTCACGTGGGTAC | 0.06 |
| TAGCTCACGTGGGTGT | -0.06 |
| TCTTACACGTGGTGGA | 0.19 |
| TTTGTCACGTGGGTCG | -0.01 |
| GGTTACACGTGGAGTG | 0.28 |
